Variants at the floor of the assay are shown more often than the library holds them.

To fix the notation:
B1: tRNA (parent)
chain: CUCUCGGUAGCCAAGUUGGUUUAAGGCGCAAGACUUUAAUUUAUCACUACGAAAUCUUGAGAUCGGGCGUUCGACUCGCCCCCGGGAGAUUUUUUCCUCGAGCAA

Variants of B1 are the subject of this series. The series is described as follows: nonsense suppression (GFP-seq) (ratio to wild type); higher = more function; SUP4oc tRNA, yeast GFP reporter sort-seq. The method in brief: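 Nonsense suppression (GFPSEQ) is the median GFP/RFP ratio of each sorting bin, weighted by the variant's estimated share of cells in that bin and expressed relative to the unmutated parent tRNA. Yeast strains carried genome-integrated variants of an ochre-suppressor tRNA from a library with ~3% random mutations, plus a galactose-driven GFP ochre reporter and RFP, and were grown in raffinose/galactose medium containing 80 mg/L adenine. Cells were sorted into GFP/RFP bins, each bin was Illumina-sequenced (phred ≥30), and variants were kept only with ≥100 reads and ≥30 cells.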
As for C79G C80A, the nonsense suppression is ≤ 0.026.

Turning to C3A C72G, the nonsense suppression is ≤ 0.026. The same measure for G59A C75G C80G: ≤ 0.026. As to C11G G18C A33G C75A, the nonsense suppression is ≤ 0.026.

As for A30C G61C, the nonsense suppression is ≤ 0.026. Take A14U C80G: the nonsense suppression is ≤ 0.026. Take G6U G25U U57G: the nonsense suppression is ≤ 0.026.

As to C12G G67C G69U, the nonsense suppression is ≤ 0.026. G61A C72U: the nonsense suppression was determined as 0.0666. Regarding G10C G28U C29U, the nonsense suppression was ≤ 0.026. On to U57A C75A, for which the nonsense suppression was determined as 0.681. As for C1U A24C A31G A74U C79U, the nonsense suppression was ≤ 0.026. Consider C34G A60C C80A, for which the nonsense suppression was ≤ 0.026. Turning to U20C A31C C79A G85C, the nonsense suppression is ≤ 0.026. For the variant A23C A54U G88C, the nonsense suppression was ≤ 0.026. For A31U G73C C81G the value was ≤ 0.026. As for A33G G69C U76G, the nonsense suppression is ≤ 0.026. Turning to A14G A30U, the nonsense suppression stood at 0.0337. Consider A30C C34G, for which the nonsense suppression was ≤ 0.026. Turning to G26U G61U G66C G86U, the nonsense suppression was ≤ 0.026. For A31C C79G the value was ≤ 0.026; for G10A A60G U63G U76A C80G A89G, ≤ 0.026; for C29U C68U, 0.272. With C27G U35G C79A, the nonsense suppression was ≤ 0.026. With G6C A54U C75U, the nonsense suppression is ≤ 0.026.

Take C29A A30C: the nonsense suppression is ≤ 0.026. In the case of U57G A60U A62U U71A, the nonsense suppression was ≤ 0.026. C34G C79G: the nonsense suppression was ≤ 0.026. Take G15U G26C C80G: the nonsense suppression is ≤ 0.026.

In the case of C3U U8C, the nonsense suppression amounted to 0.0916. For U8A A87C, the nonsense suppression was ≤ 0.026. G19C G26C U57G U76A: the nonsense suppression was ≤ 0.026. U16G G28A C77A C82A: the nonsense suppression was ≤ 0.026.

In the case of C64A G69A, the nonsense suppression was ≤ 0.026. As for G25U C34A U71A U76A, the nonsense suppression was ≤ 0.026. Regarding G19C G61A A74C G84A, the nonsense suppression was ≤ 0.026. A31C C34A: the nonsense suppression is ≤ 0.026. For A31C C34U, the nonsense suppression was ≤ 0.026. As to C11G U70C G85C, the nonsense suppression was ≤ 0.026.

C27G C34U U71C G88C: the nonsense suppression was ≤ 0.026. With C12G A23U G85A, the nonsense suppression was ≤ 0.026.

For the variant U8C G10A U58A, the nonsense suppression was ≤ 0.026.

On to A14U A23G A62U G65A U70C A89G, for which the nonsense suppression was ≤ 0.026. For G15A C79A, the nonsense suppression was ≤ 0.026. Take G6C C11U G78A: the nonsense suppression was ≤ 0.026. For A23G G78A the value was 0.0355; for A13U A30U A87U, ≤ 0.026.

Take A23U C29G: the nonsense suppression was ≤ 0.026.

On to C5G G25U A31G A33G G73C, for which the nonsense suppression was ≤ 0.026. On to U20G C79G A87G, for which the nonsense suppression is ≤ 0.026. For G6C U20A, the nonsense suppression was ≤ 0.026.

In the case of U21C A23U C82A, the nonsense suppression is ≤ 0.026.

For the variant U17C A24G C72U, the nonsense suppression was ≤ 0.026.

C5G A13U U35G A74C: the nonsense suppression is ≤ 0.026. For the variant G61C U71C C72U, the nonsense suppression is ≤ 0.026. Regarding U16C A31C G67A, the nonsense suppression is ≤ 0.026.

Turning to C11A U17G A30C, the nonsense suppression was ≤ 0.026.

For the variant G18A A31U U76G, the nonsense suppression is ≤ 0.026. The same measure for G59U C83U: ≤ 0.026; for U58G G59A: ≤ 0.026; for G15U C27G A87U: ≤ 0.026. For U8G A9C C12G U63G C81A, the nonsense suppression is ≤ 0.026. Regarding G66A U70C A87U, the nonsense suppression is ≤ 0.026.

As to G15U U57G G61C, the nonsense suppression is ≤ 0.026. For U22C A54U A74G C79U the value was ≤ 0.026; for G18C G67A G78A A87C, ≤ 0.026; for C1U G10A U17G G78A, ≤ 0.026.

For the variant U4A U76A, the nonsense suppression amounted to 0.0437. The same measure for C3A C68G: ≤ 0.026; for C1A G19A C82U: ≤ 0.026. On to G7A U22C, for which the nonsense suppression was ≤ 0.026.

As to G18U G66U C68U, the nonsense suppression was ≤ 0.026. As to C11A C34A C56G C77G, the nonsense suppression is ≤ 0.026. For the variant A54U G65U, the nonsense suppression was ≤ 0.026.

As to C3U A62U, the nonsense suppression was ≤ 0.026. On to A23U A31U A62C C64U G86A, for which the nonsense suppression was ≤ 0.026.

Consider G32A G73U, for which the nonsense suppression is ≤ 0.026. On to A13U A31U, for which the nonsense suppression came to 0.193.

In the case of C1A A24U G28U C80A G85A, the nonsense suppression was ≤ 0.026. Consider G28A C34G G84C G88C, for which the nonsense suppression is ≤ 0.026. In the case of U58A G69C, the nonsense suppression was ≤ 0.026. For G7C U70G G84U, the nonsense suppression is ≤ 0.026. In the case of A9U C34G U55G U71A, the nonsense suppression was ≤ 0.026.

For the origin of these results see the RNAGym collection of RNA variant scans (doi:10.1101/gad.245936.114).
